# Source: the supplement of paper PMC11417369
# This is one part of the list.
# Test system: PfSIP2 AP2 domain 1 (GST-tagged)
# Assay: gcPBM binding intensity (ln(normalized median fluorescence intensity)); higher = stronger DNA binding
# Procedure, shortened: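 GST-tagged P. falciparum DNA-binding domains, expressed in E. coli (about 25 μg on average), were applied for 1 h to an Agilent 4 × 180k array of primer-extended double-stranded 36-bp intergenic genomic probes plus negative controls. The binding buffer was 1× PBS with 1% milk, 0.2 mg/ml BSA, 0.5% salmon testes DNA and 0.03% Triton X-100. Bound protein was detected with Alexa488 anti-GST antibody and scanned at 488 nm. Binding intensity is the highest Masliner-normalised natural-log median intensity across replicate spots of either probe orientation.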
row,Sequence,gcPBM binding intensity (ln)
1,TATTACACATATTATACACACATATATTATATATAT [CACACA_site4951],7.88
2,TAACATATTTTTAATACACACTTAAAAAAGTACTTA [CACACA_site4875],6.95
3,TTAAATTGAATTAGTTAACACACAACTTTTATTTCA [CACACA_site8921],6.65
4,TCTTCATACGACTAAAAAACATTAGACTGATAAAAA [CACACA_negctrl_site628],7
5,TTGTGTTTTACATATACATGCAAATTTTTTTTTTTA [TGCATGCA_site303],6.75
6,TAAATCATTTCATGGCATTTACACAAAATTTTTTAA [CACACA_negctrl_site1260],6.82
7,TATAGCATAAATATGTGTACATATTTATATGATATT [XGTACX_site6333],7
8,TATATATAATATTATACACACATATATGCATAATAT [CACACA_site54],7.31
9,TATTTATTTATATAAACACACATAAATATAAATATA [CACACA_site6653],6.97
10,ATATATATTTAAAAAAGTACAGAAGAAAATAACCCA [XGTACX_site642],7.5
11,TATTAATAAAACCGTTGTACTACATACATAAATATT [XGTACX_site5578],6.94
12,CATTATATGATTTATGTGCACATTCATTTATTTTAA,8.5
13,AAAAATCAATTAGAAGAACACACGTAAATTTTTTTT [CACACA_site2396],6.73
14,ATACTATATATATAAGTGCATGTTCATTATACCTAA,8.28
15,ATATATATTATGTGTGTGCACTTTTGTTATTATTAT,10.4
16,ATAACTAAATGATATTGTACAAAATAATTATATATT [XGTACX_site1331],7
17,TAAATGGGTGTTAATGCACACGATATGTCTATATAT [CACACA_site5321],7.07
18,TATTTATTTTTCTGTTGTACTTTTCAACATGTTACA [XGTACX_site7457],7.18
19,TCTACATATTAATTATGTACGAATTATTATTAGTAA [XGTACX_site6924],6.82
20,TATTTATGTTCATATAAACACACGTAAAATTCAAGG [CACACA_site1538],7.15
21,GTCCCTATAAGGGGAACACACATAAATGGATATATA [CACACA_site6612],6.81
22,CATATTCATAAAAGTTGTACATGCAATTTTTTTTTT [XGTACX_site2261],6.81
23,TCAATAAAAAAAAACGCACACACAAATATATTCCAT [CACACA_site1223],6.99
24,TATTTTTTTTTTATATGTACATAATTTCAAATAAAT [XGTACX_site7747],7.03
25,AAGGATATAACATACACACACACACCGATATATATA [CACACA_site6136],7.47
